Experimental data taken from publication PMC4336329 (PLoS ONE, 2015).
In all, about 310,000 compounds went through this assay and about 2,200 (0.71%) showed an effect of 50% or more. The effect is printed as a negative number. The list shows a part of the results.

target: human ether-à-go-go-related gene (hERG) potassium channel (human, UniProt Q12809); assay: primary screen, population patch clamp on CHO cells stably expressing hERG
Sequence (Q12809 whole entry, looked up): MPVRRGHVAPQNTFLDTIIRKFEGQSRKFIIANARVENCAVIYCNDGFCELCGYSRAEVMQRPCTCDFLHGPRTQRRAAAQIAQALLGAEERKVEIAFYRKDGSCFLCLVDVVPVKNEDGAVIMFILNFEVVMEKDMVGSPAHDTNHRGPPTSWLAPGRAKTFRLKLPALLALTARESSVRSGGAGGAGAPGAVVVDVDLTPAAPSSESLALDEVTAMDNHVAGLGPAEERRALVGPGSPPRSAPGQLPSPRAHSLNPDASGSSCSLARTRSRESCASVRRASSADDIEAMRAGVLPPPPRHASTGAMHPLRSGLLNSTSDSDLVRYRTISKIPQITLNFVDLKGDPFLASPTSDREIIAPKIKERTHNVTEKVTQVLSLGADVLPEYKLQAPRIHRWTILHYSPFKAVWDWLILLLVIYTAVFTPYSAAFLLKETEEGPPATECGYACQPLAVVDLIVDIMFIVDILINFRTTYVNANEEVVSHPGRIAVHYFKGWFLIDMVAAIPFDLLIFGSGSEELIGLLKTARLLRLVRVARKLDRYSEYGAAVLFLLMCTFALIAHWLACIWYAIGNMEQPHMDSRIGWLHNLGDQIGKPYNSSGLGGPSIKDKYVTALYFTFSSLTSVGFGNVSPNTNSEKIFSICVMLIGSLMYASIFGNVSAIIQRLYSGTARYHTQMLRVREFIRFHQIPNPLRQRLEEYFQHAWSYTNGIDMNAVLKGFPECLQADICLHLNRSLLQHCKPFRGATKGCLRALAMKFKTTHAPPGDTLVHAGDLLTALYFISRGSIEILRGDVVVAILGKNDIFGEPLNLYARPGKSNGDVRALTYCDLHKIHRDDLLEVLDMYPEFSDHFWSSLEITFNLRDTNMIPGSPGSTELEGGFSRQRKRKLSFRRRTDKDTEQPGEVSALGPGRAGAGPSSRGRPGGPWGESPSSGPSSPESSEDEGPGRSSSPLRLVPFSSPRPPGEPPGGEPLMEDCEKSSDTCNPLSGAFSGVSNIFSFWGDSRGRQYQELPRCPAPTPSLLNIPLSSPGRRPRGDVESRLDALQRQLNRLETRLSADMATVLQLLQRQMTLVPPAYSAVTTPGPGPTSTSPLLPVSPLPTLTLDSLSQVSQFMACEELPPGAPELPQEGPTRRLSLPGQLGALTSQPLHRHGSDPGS

Row | Compound | hERG current change (%, negative = inhibition) at 1uM
1 | Cc1cc(N)n(-c2ccc(C)c(C)c2)n1.Cl | 19.1%
2 | CCOC(=O)[C@H]1[C@H]2COc3ccc(Cl)cc3[C@@H]2N2C(=O)c3ccc(Cl)cc3NC(=O)[C@@]12C | 8.9%
3 | CCCCNC(=O)c1ccc(CS(=O)(=O)c2ccc(OC)cc2)o1 | 0.154%
4 | CC(/C=N/Nc1nc(C)cc(C)n1)=C\c1ccc(C(C)C)cc1 | 7.29%
5 | CCc1ncc(C(=O)c2ccc(OC)cc2)n1C | 10.7%
6 | CCOc1ccc(NC(=O)CSc2nncc(=O)n2N)cc1 | 13.7%
7 | COC(=O)c1ccc(C23CC4(C2)[C@H](CN(CC2CCCCC2)[C@@H]4c2ccccc2)C3c2ccc(C(F)(F)F)cc2)cc1 (some centres unmarked) | 6.45%
8 | COc1cc(NC(=O)COC(=O)CSc2ccccc2F)c(C)cc1[N+](=O)[O-] | 13.9%
9 | CSc1oc(-c2ccc(F)cc2)nc1S(=O)(=O)c1ccccc1 | -1.68%
10 | Cc1nnc(NC(=O)CSc2nnc(CCNC(=O)c3ccccc3F)n2C)s1 | 11.9%
11 | Cc1nc2ccccn2c1C(=O)/C=C/c1ccc(F)cc1 | 4.1%
12 | Cn1ccnc1C(=O)c1cccc(Br)c1 | 1.86%
13 | CCOC(=O)c1sc(=NC(=O)c2c(F)cccc2F)n(C)c1C | 9.05%
14 | Cc1cccc(-n2ccnc2SCC(=O)Nc2nnc(C)s2)c1 | 0.329%
15 | CCOc1ccc(N=C(NN)c2ccc3ccccc3n2)cc1 | 11.9%
16 | O=C(c1ccc(OC2CCN(C/C=C/c3ccccc3)CC2)cc1)N1CCCC1 | -27.1%
17 | Cc1cccc(N2CC(C(=O)Nc3ccc(S(=O)(=O)N4CCOCC4)cc3)CC2=O)c1 (centres unmarked) | 18.8%
18 | COc1ccc(CC(=O)N2CCN=C2SCc2ccc([N+](=O)[O-])cc2)cc1 | -8.88%
19 | C=CCNc1ncnc2sc(SC)nc12 | 10.2%

Row | Compound | hERG current change (%, negative = inhibition) at 1uM
20 | CC1CCCCN1C(=O)Cn1c(=O)n(CCC(=O)NCc2ccco2)c(=O)c2sccc21 (centres unmarked) | -1.72%
21 | Cc1ccc(Cn2c(=N)c(C(=O)NCCN3CCOCC3)cc3c(=O)n4ccccc4nc32)cc1 | -8.25%
22 | O=C(Nc1ncccc1O)c1cc2ccccc2o1 | 24.1%
23 | O=C(NCc1ccccc1)C(c1ccncc1)N(C(=O)c1csnn1)c1ccccc1F (centres unmarked) | 9.57%
24 | CN(Cc1ccccc1)C(=O)c1ccc(NC(=O)Cc2cccc(NC(=O)C3CCCN(C(=O)C4CCC4)C3)c2)cc1 (centres unmarked) | 9.88%
25 | COc1ccccc1-c1coc2cc(O)cc(O)c2c1=O | 5.23%
26 | CC(=O)Nc1ccc(NC(=O)[C@@H](NC(=O)c2ccccc2F)C(C)C)cc1 | 16.8%
27 | Cc1ccccc1CS(=O)(=O)Cc1ccc(C(=O)NCc2ccccn2)o1 | 21.2%
28 | CCCCCNC(=O)C1c2ccccc2Oc2ccccc21 | 8.57%
29 | CC(=O)Cc1c(C(=O)O)c(C)nn1-c1ccccc1 | 16.5%
30 | O=C1CC(c2ccc3c(c2)OCO3)Sc2nc3ccccc3n21 (centres unmarked) | 17.1%
31 | O=C(Cc1ccc2c(c1)CCCC2)Nc1ccc2ccccc2c1 | 27%
32 | COc1ccccc1C(=O)NC(=S)Nc1ccc(NC(=O)c2ccco2)cc1 | -7.22%
33 | CS(=O)(=O)N(CC(=O)NC1CCCCC1)Cc1ccc(F)cc1 | 10.7%
34 | CCCCn1c(SCC(=O)NCc2cccs2)nc2c1c(=O)n(C)c(=O)n2C | -3.97%
35 | COc1ccccc1N1CCN(C(=O)C(CC(C)C)NC(=O)C2CCCCC2)CC1 (centres unmarked) | 1.29%
36 | CN1C(=O)C(=Cc2c(OCc3cnc(Cl)s3)ccc3ccccc23)C(=O)N(C)C1=O | 16.2%
37 | CN(C(=O)Cc1c[nH]c2ccccc12)C(C(=O)Nc1ccc2c(c1)OCO2)c1ccccc1 (centres unmarked) | 9.96%
38 | O=C(C(Sc1ccccc1)c1ccccc1)N1CCN(c2ccccc2F)CC1 (centres unmarked) | 6.48%

Row | Compound | hERG current change (%, negative = inhibition) at 1uM
39 | O=C(CSc1nnnn1C1CCCC1)NCc1ccc2c(c1)OCO2 | 9.58%
40 | COCCN(C(=O)CSc1ncn[nH]1)c1c(N)n(Cc2ccccc2)c(=O)[nH]c1=O | 19.8%
41 | CC(C)[C@H](CN(N=O)[C@@H](Cc1ccccc1)CN(C)N=O)N(CCc1ccccc1)N=O.[Na+] | 11.1%
42 | CS(=O)(=O)c1ccc(Cl)c(C(=O)O)c1 | 14.6%
43 | Cc1ccc(Oc2c(C)nc(-c3ccccc3)[nH]c2=O)cc1 | 5.4%
44 | Cc1cccc(NC2=NCCCS2)c1 | 4.47%
45 | Cc1cc(OCC(=O)Nc2cnn(CCCC(=O)O)c2)ccc1Cl | 20%
46 | CC(C)(C)c1nnc(NC(=O)NS(=O)(=O)c2ccccc2)s1 | 18.7%
47 | CCOC(=O)[C@@H]1[C@H]2COc3ccccc3[C@H]2N2C(=O)N(c3ccc(Cl)cc3)C(=O)[C@@]12C | 9.47%
48 | COc1ccc([N+](=O)[O-])c(OC)c1C(=O)Nc1ccc(F)cc1F | 11.7%
49 | O=C(NCCN1CCOCC1)c1cc(-c2ccco2)on1 | -3.86%
50 | CSCCC(NS(=O)(=O)c1cccs1)C(=O)NCc1ccccc1 (centres unmarked) | 15.7%
51 | Cc1nn(Cc2cccc(C(=O)N3CCCC(C)C3)c2)c(C)c1[N+](=O)[O-] (centres unmarked) | -0.335%
52 | CCOCCCNCc1cccc(OCc2ccc(F)cc2)c1 | -5.15%
53 | CC(=O)COc1coc(CN2CCN(c3ccc(F)cc3)CC2)cc1=O | 19.2%
54 | Cc1ccc(C)c(NC(=O)Nc2ccc3c(c2)OCO3)c1 | 10.3%
55 | NC(N)=N/N=C/c1ccc(N(c2ccccc2)c2ccccc2)cc1.O=[N+]([O-])O | 12.7%
56 | Cc1[nH]c2ccccc2c1/C=N/NC(=O)c1cc(C(C)(C)C)[nH]n1 | 8.06%
